Results are given in words; binding and its absence hold for the method and conditions named. For some assays here: In cells and extracts the contact can be indirect. Some results given as binding are weak or reduced against the parent protein; the word gives no strength. For some assays here: Where a sequence is shown, tags or fusion partners need not be part of it. Blank lines part the entries; values can stand above or below the substance they belong to.
How the values were obtained:
[1] = target: T1, GST-fused SPAG5 aa 973 to 1193 (human) (UniProt Q96R06); assay: pull-down; GST fusion protein from E. coli as bait; Flag-tagged protein from COS-1 cell lysate; detected by anti-Flag antibody; only the target purified
T1 sequence: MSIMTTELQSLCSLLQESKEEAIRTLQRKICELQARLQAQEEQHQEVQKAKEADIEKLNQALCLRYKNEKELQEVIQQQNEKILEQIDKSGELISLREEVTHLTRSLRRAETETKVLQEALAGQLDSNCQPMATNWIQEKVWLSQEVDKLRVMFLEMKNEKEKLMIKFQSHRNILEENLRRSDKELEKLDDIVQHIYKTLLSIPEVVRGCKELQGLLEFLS

Amino acid sequences for entries named in this document (tags omitted). A change or cut given only in a name is not applied to a line headed by its entry.
UniProt Q9Y2I6: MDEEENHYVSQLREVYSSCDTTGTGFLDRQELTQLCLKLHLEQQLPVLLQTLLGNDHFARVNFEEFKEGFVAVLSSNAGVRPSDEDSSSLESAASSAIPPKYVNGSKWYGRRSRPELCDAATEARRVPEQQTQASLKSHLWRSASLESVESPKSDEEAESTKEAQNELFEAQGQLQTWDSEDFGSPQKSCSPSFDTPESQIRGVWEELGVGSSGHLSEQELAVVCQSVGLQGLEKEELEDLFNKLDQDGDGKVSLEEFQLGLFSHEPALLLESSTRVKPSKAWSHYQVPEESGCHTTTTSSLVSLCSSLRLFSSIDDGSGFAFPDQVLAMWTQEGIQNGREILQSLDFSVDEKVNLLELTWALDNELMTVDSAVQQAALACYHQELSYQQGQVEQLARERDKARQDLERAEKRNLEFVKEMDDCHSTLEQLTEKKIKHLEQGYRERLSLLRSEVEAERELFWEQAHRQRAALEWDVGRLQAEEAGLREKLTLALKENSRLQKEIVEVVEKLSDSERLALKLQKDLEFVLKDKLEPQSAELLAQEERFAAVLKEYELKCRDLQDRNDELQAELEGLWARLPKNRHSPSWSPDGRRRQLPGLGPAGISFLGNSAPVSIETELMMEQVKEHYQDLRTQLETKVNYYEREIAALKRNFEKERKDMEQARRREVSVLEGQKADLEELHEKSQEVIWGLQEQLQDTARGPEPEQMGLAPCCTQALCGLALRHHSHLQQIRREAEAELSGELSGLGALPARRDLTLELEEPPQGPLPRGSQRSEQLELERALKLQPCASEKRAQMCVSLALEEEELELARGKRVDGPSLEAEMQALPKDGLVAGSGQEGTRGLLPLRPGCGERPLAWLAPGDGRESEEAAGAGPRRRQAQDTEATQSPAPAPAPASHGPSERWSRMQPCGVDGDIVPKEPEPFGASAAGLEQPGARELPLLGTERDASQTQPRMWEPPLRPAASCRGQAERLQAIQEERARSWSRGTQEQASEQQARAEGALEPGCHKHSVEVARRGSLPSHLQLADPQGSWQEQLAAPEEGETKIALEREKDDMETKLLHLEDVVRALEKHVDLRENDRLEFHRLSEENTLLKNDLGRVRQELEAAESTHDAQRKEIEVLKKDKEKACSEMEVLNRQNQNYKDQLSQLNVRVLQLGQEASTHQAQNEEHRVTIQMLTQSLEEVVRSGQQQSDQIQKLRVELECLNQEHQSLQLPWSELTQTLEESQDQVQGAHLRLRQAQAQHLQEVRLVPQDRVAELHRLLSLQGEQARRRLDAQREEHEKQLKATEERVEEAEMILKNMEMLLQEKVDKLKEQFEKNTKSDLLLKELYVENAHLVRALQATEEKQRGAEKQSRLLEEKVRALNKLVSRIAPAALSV
UniProt Q12929: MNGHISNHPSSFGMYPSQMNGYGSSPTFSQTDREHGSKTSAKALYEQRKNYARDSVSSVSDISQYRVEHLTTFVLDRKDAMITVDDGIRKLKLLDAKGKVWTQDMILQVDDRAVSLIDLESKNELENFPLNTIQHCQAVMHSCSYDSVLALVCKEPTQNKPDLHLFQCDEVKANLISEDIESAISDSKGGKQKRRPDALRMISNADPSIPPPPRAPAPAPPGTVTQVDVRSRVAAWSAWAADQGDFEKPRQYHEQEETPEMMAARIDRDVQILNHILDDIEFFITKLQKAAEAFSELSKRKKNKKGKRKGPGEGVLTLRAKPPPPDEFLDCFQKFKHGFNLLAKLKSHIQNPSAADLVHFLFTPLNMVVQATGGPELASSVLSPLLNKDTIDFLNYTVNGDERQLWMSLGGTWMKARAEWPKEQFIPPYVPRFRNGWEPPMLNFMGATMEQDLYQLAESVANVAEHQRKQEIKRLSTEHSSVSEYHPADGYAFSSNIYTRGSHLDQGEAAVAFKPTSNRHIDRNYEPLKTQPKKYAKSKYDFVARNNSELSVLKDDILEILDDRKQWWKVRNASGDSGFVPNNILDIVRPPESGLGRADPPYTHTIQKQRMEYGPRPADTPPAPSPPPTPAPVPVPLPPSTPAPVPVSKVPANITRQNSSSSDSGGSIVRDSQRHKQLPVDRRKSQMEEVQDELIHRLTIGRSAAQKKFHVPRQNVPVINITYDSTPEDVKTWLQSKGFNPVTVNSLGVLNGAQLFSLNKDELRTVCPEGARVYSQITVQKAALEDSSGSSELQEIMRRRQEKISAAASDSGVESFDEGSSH

[2] = target: T2, HA-tagged USH2A isoform B intracellular domain (human) (UniProt O75445); assay: co-IP; Flag-NINL isoB with HA-tagged proteins; cells not named for this experiment
T2 sequence: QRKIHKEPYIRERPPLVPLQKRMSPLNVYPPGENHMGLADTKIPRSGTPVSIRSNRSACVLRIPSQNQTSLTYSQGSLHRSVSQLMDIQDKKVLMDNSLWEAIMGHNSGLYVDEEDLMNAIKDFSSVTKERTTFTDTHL

HA-tagged MDA5 = target: T3, HA-tagged MDA5 (UniProt Q9BYX4); assay: as above
T3 sequence: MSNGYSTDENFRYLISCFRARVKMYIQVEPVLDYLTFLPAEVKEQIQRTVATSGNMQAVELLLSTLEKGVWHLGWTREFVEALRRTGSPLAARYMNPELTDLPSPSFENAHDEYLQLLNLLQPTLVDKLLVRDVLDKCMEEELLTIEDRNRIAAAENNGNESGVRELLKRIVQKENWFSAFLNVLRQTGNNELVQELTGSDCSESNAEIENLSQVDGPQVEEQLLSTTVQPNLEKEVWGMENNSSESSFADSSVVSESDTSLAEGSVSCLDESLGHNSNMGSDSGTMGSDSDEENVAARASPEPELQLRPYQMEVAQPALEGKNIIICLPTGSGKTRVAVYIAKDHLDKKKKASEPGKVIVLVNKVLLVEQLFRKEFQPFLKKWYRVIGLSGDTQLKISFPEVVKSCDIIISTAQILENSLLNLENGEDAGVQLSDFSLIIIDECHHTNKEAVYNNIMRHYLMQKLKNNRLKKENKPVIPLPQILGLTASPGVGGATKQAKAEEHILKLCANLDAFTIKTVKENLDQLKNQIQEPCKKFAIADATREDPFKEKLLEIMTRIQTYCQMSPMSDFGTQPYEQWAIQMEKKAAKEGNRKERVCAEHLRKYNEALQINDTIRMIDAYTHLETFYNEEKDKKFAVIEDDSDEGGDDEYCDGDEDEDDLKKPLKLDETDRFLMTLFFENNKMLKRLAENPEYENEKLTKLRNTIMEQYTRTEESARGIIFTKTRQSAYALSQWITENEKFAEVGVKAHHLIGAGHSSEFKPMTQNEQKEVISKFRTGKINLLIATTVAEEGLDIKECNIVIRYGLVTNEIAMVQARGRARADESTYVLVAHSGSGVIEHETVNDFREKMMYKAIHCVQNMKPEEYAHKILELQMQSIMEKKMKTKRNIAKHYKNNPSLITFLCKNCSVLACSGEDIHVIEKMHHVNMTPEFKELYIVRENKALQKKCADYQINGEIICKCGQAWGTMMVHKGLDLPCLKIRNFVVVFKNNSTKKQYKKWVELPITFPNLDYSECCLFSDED

[3] = target: T4, HA-tagged full-length SPAG5 (human) (UniProt Q96R06); assay: as above
T4 sequence: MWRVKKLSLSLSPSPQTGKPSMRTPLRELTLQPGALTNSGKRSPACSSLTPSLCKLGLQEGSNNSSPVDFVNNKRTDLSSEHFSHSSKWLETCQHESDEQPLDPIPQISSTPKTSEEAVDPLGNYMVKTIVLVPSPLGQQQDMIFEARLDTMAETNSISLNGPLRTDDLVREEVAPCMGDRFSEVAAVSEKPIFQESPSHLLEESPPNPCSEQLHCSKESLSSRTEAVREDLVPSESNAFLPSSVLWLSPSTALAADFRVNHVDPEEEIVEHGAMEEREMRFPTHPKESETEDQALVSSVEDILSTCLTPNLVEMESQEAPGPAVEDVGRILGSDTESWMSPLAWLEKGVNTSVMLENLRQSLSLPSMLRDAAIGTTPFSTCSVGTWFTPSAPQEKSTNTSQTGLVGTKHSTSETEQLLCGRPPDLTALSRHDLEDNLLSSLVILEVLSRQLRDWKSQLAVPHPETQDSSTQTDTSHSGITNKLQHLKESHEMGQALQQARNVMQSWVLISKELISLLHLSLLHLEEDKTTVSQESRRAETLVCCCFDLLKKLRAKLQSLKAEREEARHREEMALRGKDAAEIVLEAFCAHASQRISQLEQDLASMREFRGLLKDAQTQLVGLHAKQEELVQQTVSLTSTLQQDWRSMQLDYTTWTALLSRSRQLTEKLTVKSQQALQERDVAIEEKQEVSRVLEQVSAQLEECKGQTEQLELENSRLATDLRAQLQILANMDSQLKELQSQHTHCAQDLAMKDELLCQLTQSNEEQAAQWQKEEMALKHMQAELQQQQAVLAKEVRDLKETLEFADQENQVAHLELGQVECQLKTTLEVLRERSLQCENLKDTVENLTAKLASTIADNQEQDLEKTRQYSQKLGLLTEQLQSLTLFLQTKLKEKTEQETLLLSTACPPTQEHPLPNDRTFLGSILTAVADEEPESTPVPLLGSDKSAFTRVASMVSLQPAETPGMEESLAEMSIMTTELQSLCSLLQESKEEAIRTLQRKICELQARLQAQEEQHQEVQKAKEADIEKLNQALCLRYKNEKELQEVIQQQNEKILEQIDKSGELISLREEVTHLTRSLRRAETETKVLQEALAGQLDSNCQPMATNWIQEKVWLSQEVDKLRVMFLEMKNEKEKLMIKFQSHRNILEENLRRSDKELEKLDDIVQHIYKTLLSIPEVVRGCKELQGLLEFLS

[4] = target: T5, SPAG5 fragment aa 973 to 1193, yeast two-hybrid construct (human) (UniProt Q96R06); assay: two-hybrid; liquid beta-galactosidase assay in yeast
T5 sequence: T1 sequence

[5] = target: T6, GFP-tagged USH2A isoform B intracellular domain (human) (UniProt O75445); assay: co-IP; from COS-1 cell lysates; GFP-fused USH2A isoB ICD precipitated with anti-GFP antibody, HA-tagged proteins detected
T6 sequence: T2 sequence

[6] = target: T5, SPAG5 fragment aa 973 to 1193, yeast two-hybrid construct (human); assay: two-hybrid; liquid beta-galactosidase assay in yeast; data not shown

binding [1]: binds
binding [2]: binds
binding (HA-tagged MDA5): no binding
binding [3]: binds
Substance: Flag-tagged full-length NINL isoform B (from UniProt Q9Y2I6-2 1-1033)

binding [5]: no binding
Substance: HA-tagged EPS8 (from UniProt Q12929 1-822)

binding [6]: binds
Substance: full-length NINL isoform A, yeast two-hybrid construct (from UniProt Q9Y2I6 1-1382)

The remaining lines, values behind:

Substance: full-length NINL isoform B, yeast two-hybrid construct (from UniProt Q9Y2I6-2 1-1033)
binding [4]: binds

Substance: NINL isoform B predicted intermediate filament domain (aa 656 to 925), yeast two-hybrid construct (from UniProt Q9Y2I6-2 656-925) (domain or fragment)
binding [4]: binds
